Here are results for 58 sequences from the supplement of paper PMC11417369.

The other results are listed elsewhere or left out.

For the experiment, the system named is PfAP2-HC AP2 domain (GST-tagged). Kind of experiment: gcPBM binding intensity (ln(normalized median fluorescence intensity)); higher = stronger DNA binding. The method in brief:
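The binding buffer was 1× PBS containing 1% milk, 0.2 mg/ml BSA, 0.5% salmon testes DNA and 0.03% Triton X-100. In it, GST-tagged P. falciparum DNA-binding domains expressed in E. coli were applied for 1 h to an Agilent 4 × 180k array of primer-extended double-stranded 36-bp intergenic genomic probes plus negative controls. Binding intensity, read with Alexa488 anti-GST antibody and a 488 nm scan, is the highest Masliner-normalised natural-log median intensity across replicate spots of either probe orientation.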
Consider “AAAAAAAAAAAAATCACACATAATATAGAATATGTA [CACACA_site4993]”, for which the “gcPBM binding intensity (ln)” value stood at 9.51.

Regarding “AACTTAAAAAATAAATGTACATAAATATAAACATAT [XGTACX_site2987]”, the “gcPBM binding intensity (ln)” value worked out at 9.73.

Regarding “TATTTAAATTTTAAGTGTACATATTTATTTATATCT [XGTACX_site6545]”, the “gcPBM binding intensity (ln)” value came to 9.59.

As to “AAAAAAAAAAAAAACATACACACAATAAAATAGGGG [CACACA_site2398]”, the “gcPBM binding intensity (ln)” value is 10.

Regarding “ATTTTTTTTTTTTTTTTTTTTTTATTCTTGTAATCT [CACACA_negctrl_site1039]”, the “gcPBM binding intensity (ln)” value stood at 9.41.

For CCTTTTTATCTTTTTGTGCACAGACCTTTTTTAAAT, the “gcPBM binding intensity (ln)” value is 9.87.

Consider “ATGTAAGTTGTGCATTCACACACATATATATATATA [CACACA_site9086]”, for which the “gcPBM binding intensity (ln)” value worked out at 9.99.

For the sequence “ATATAATAATAAAGACGTACAAATGTATATATATAC [XGTACX_site3123]”, the “gcPBM binding intensity (ln)” value was found to be 9.9.

As to “ATTTTTTTTTTTTATAGTGGATCCACATTTGCCATT [CACACA_negctrl_site1284]”, the “gcPBM binding intensity (ln)” value is 9.62.

For the sequence “ATATATTTTAATTGTTGTACATATTAAATAAATAGG [XGTACX_site2311]”, the “gcPBM binding intensity (ln)” value worked out at 9.49.

TATATTTTATATATGGTGCAACTTTTATTTAAATAA: the “gcPBM binding intensity (ln)” value was 9.33.

For the sequence “CATATATAAAAAAACACACACATATATATATATATA [CACACA_site1195]”, the “gcPBM binding intensity (ln)” value was 10.2.

With “ACATAAATATAAACGTGTACATATATAAATATATAT [XGTACX_site7293]”, the “gcPBM binding intensity (ln)” value was 9.92.

“AAAATTAAACTCACACCACACACAAAAAAAAAAAAA [CACACA_site8131]”: the “gcPBM binding intensity (ln)” value turned out to be 10.6.

On to “AAGAAAGACATTACGTGTACCAAACAACCTACCAAC [XGTACX_site4219]”, for which the “gcPBM binding intensity (ln)” value was determined as 9.94.

“ATGTATATGTCTATATGTACTTATATTTTATTTTTT [XGTACX_site5902]”: the “gcPBM binding intensity (ln)” value worked out at 9.83.

On to “TGTTTTATCTTATATGCACACGATAAAAAAAAAAAA [CACACA_site2674]”, for which the “gcPBM binding intensity (ln)” value came to 9.49.

“TTACAAGTAAAAGGTACACACATTATAAATACAAAT [CACACA_site4752]”: the “gcPBM binding intensity (ln)” value worked out at 9.98.

For the sequence CATTATTCATTTTGGATGCACTGACAGAAAAATGGT, the “gcPBM binding intensity (ln)” value turned out to be 9.5.

In the case of “ATGCTCAGGAAAACATGTACAAAATTATTTGTTATA [XGTACX_site4306]”, the “gcPBM binding intensity (ln)” value is 9.56.

Take “TGAGTACACAATAATACATGCAATTCCTATGAATAT [TGCATGCA_site851]”: the “gcPBM binding intensity (ln)” value is 9.62.

As for “ATATGACATAAAACATGTACATGTTCATAAATATAT [XGTACX_site1923]”, the “gcPBM binding intensity (ln)” value worked out at 9.85.

“ATTTACATAATAAAATGTACATTTATAAATATTATA [XGTACX_site1901]”: the “gcPBM binding intensity (ln)” value worked out at 9.64.

On to “TACACTTTTTATGAAGTGCATGTATAGCTCTTAAAA [GTGCAC_site9595]”, for which the “gcPBM binding intensity (ln)” value came to 9.34.

With “TTTTGTGCTTAAAAAAGTACAAAATATAAAAAAAAT [XGTACX_site7876]”, the “gcPBM binding intensity (ln)” value was found to be 9.41.

With “TGCAGTCTGGAGAAACGTACACAGTATCTGGTAACC [XGTACX_site2543]”, the “gcPBM binding intensity (ln)” value was found to be 9.58.

Consider “CCCACAGACGGACACACACACACACCGACACATATA [CACACA_site4356]”, for which the “gcPBM binding intensity (ln)” value was 11.

Turning to “AAAATTGAACCTGACAAGGTATTTTATTATTTATTA [TGCATGCA_negctrl_site181]”, the “gcPBM binding intensity (ln)” value is 9.44.

In the case of “TTCTATTTTAATATCTGTACATAATAAAGATCCATT [XGTACX_site1142]”, the “gcPBM binding intensity (ln)” value was found to be 9.47.

With “AGTTTTTATAAAAATAGTACATATTTATTAATCTGT [XGTACX_site5881]”, the “gcPBM binding intensity (ln)” value was 9.59.

For “CTTTTTCTTTTCCGGCGTACAGACTTAGTAGTAGAT [XGTACX_site2268]”, the “gcPBM binding intensity (ln)” value was determined as 9.48.

As for “TACATGCAAAAAATTCCACACACACCCCCACATATA [CACACA_site8329]”, the “gcPBM binding intensity (ln)” value was found to be 10.3.

“TAAAATATAGGAAATACATGCATATTAAATATTCCT [TGCATGCA_site1057]”: the “gcPBM binding intensity (ln)” value was found to be 9.6.

On to “TACTTCATTCATTTTACACACATATAAACCCTTTTA [CACACA_site3229]”, for which the “gcPBM binding intensity (ln)” value was 10.

For the sequence AATATTCAATATAAAGTGCATTATTGTGGACCTAAT, the “gcPBM binding intensity (ln)” value worked out at 9.79.

Turning to “ACTAATACATAAAAAAGTACAAATATGAGTATTAAC [XGTACX_site7281]”, the “gcPBM binding intensity (ln)” value was determined as 9.93.

As to “TATATAGCTAAAAACACACAAATATGTACACATAAA [CACACA_site7665]”, the “gcPBM binding intensity (ln)” value came out at 9.88.

Take “AAATATACATACATATGTACATATATATATATATAT [XGTACX_site8202]”: the “gcPBM binding intensity (ln)” value was 9.86.

In the case of “ATAGTTAAAAAAAAAAAAAAAAAAAAAAGAGAGAGA [CACACA_negctrl_site1307]”, the “gcPBM binding intensity (ln)” value was 9.44.

In the case of ACAATAAAGAACAGTATGCACTTTTATGCATGCGTA, the “gcPBM binding intensity (ln)” value turned out to be 9.68.

As to “AAATTATTAAAAAAGTGTACATATTTTTATAATACC [XGTACX_site5610]”, the “gcPBM binding intensity (ln)” value amounted to 9.58.

For the sequence “ATAAGCATACATATTACACACATATAACATCTATAT [CACACA_site7219]”, the “gcPBM binding intensity (ln)” value was determined as 9.99.

“GGGTATACCAATATAACACACATATATATATAATAT [CACACA_site450]”: the “gcPBM binding intensity (ln)” value turned out to be 9.86.

Consider “TTAATCAAATTACTATGTACATAAAACATATAAGAA [XGTACX_site381]”, for which the “gcPBM binding intensity (ln)” value amounted to 9.63.

On to “TATTTTTTTTCAAAAAAGTTTATTTAGAACTAAATA [XGTACX_negctrl_site487]”, for which the “gcPBM binding intensity (ln)” value amounted to 9.17.

In the case of “AAAAAAAAAAAAAGTACACACATACAGATAAATATA [CACACA_site5067]”, the “gcPBM binding intensity (ln)” value turned out to be 9.98.

In the case of “ATAAATTGATTCAACACACACATATGTAGGAAGTTA [CACACA_site3253]”, the “gcPBM binding intensity (ln)” value was 9.97.

With “TTTTTTAAATTGGTAGTGCAATATGATTGAACAAAA [GTGCAC_site9715]”, the “gcPBM binding intensity (ln)” value came to 9.36.

“AATACAATAAAAAAAAGTACACATGTATAAAAAATT [XGTACX_site8270]”: the “gcPBM binding intensity (ln)” value turned out to be 10.4.

On to “TGTTATCAGAAAGCACGTACATATAATTATATATTC [XGTACX_site4188]”, for which the “gcPBM binding intensity (ln)” value is 9.57.

With “AATATATCTTATTTAACACACACAAAGAAAATAGAA [CACACA_site9242]”, the “gcPBM binding intensity (ln)” value turned out to be 10.4.

“TATATATATATACATACATGCATATATATATATATA [TGCATGCA_site513]”: the “gcPBM binding intensity (ln)” value was 9.48.

“ATGAATTAATCTAATCGTACAATAAGCATTATTATA [XGTACX_site2571]”: the “gcPBM binding intensity (ln)” value is 9.52.

“GAATATGTAAAGAAAGGTACACATGAAAATATGTGT [XGTACX_site446]”: the “gcPBM binding intensity (ln)” value was 9.79.

As for “TGTACCTACAAAATATGATATATTTTTATAAATTGT [XGTACX_negctrl_site498]”, the “gcPBM binding intensity (ln)” value worked out at 9.44.

With “TAGAAAATCAGTTAAACACACACATAAAAAAAAAAA [CACACA_site8933]”, the “gcPBM binding intensity (ln)” value was found to be 10.7.

Regarding “TTCTTATTTGTACTAGTGCAATAGAAAATAAATAAA [GTGCAC_site9731]”, the “gcPBM binding intensity (ln)” value came to 9.35.

On to “TATATAATATATATATGTACACATTTGCAAACAATG [XGTACX_site6941]”, for which the “gcPBM binding intensity (ln)” value was determined as 9.7.
